The campaign covered roughly 48,000 compounds. About 1,200 (2.5%) were called active. Another 2% or so got no clear call; they are omitted.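 The calls were made as follows: active = activation of at least 60% and not above a set upper limit (about 1 call in 100 departs from these limits); inconclusive = activation of 40% to 60%, or above that upper limit; inactive = activation under 40%.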 The list shows a part of the results.
Target: Probable G-protein coupled receptor 32 (Homo sapiens) (UniProt O75388)
UniProt O75388, sequence (O75388 whole entry, looked up): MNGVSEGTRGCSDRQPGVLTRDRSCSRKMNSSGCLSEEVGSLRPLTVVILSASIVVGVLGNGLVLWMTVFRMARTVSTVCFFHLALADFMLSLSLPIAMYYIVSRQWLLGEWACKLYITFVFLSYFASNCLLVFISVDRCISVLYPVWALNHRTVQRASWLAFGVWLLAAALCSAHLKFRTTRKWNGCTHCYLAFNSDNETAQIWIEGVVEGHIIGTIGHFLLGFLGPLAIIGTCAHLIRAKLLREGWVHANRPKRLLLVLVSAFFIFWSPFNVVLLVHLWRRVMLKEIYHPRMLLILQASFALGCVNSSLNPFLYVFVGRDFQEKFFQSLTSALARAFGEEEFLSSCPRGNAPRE
Experiment: qHTS for Agonists of Human Resolvin D1 Receptor DRV1; also: 0% is about no effect
Conditions: CHO-K1 GPR32 beta-arrestin PathHunter luminescence, 90 min; at 76.9 µM; stronger effect = higher value; zero percent set by DMSO-only wells
In short: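 GPR32 activation in stably transfected CHO-K1 cells, detected as beta-arrestin recruitment by enzyme-fragment complementation. Compound exposure: 90 min, 37 °C.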

SMILES	activation
C[C@H](NC(CCc1ccccc1)C(=O)O)C(=O)N1CCC[C@H]1C(=O)O (stereo partly drawn)	inactive: -12.8%
CCOc1ccc(-c2cc(C(=O)N3CCN(c4cccc(C(F)(F)F)c4)CC3)c3ccccc3n2)cc1	inactive: -33.7%
COc1ccc(NC(=O)C(=O)NCC2(c3ccccc3)CCCC2)c(OC)c1	inactive: -26%
CNC(=O)CSc1nnc(NC(=O)Nc2ccccc2)s1	inactive: 0.773%
Cc1ccc2oc3c(c(=O)c2c1)C(c1ccc(OCC(N)=O)cc1)N(Cc1ccc2c(c1)OCO2)C3=O (stereo not drawn)	inactive: 3.59%
CCOc1ccccc1N(CC(=O)Nc1ccc(OC)c(Cl)c1)S(=O)(=O)c1ccccc1	inactive: -6.36%
O=C(CSc1nnc(-c2ccc(Br)cc2)n1-c1ccccc1)c1ccccc1	inactive: -8.45%
Cc1ccc(N(CC(C)C)S(=O)(=O)c2nnc(NC(=O)c3cccs3)s2)cc1	inactive: 43.5%
COc1ccc(C(=O)NCC(c2ccc3c(c2)OCO3)N2CCN(c3ccc(F)cc3)CC2)cc1 (stereo not drawn)	inactive: -28.3%
CCOCN(C(=O)Cn1cnc2cc(C)c(C)cc21)c1c(C)cccc1CC	inactive: -3.5%
CCc1ccccc1NC(=O)c1cc(-c2ccc3c(c2)OCO3)on1	inactive: 7.72%
CCOc1ccc(/C=C/c2nc(C#N)c(N3CCN(c4ccccc4)CC3)o2)cc1	inactive: -10.5%
COc1ccc(CNC(=O)CN2C(=O)COc3ccc(S(=O)(=O)N4CCOCC4)cc32)cc1	inactive: -19.7%
COc1ccc(-c2cn3nc(N4CCC(C(=O)Nc5ccc(C)cc5)CC4)sc3n2)cc1	inactive: -4.1%
Cc1cccc(Oc2coc3cc(OCC(=O)NC4CCCCC4)ccc3c2=O)c1	inactive: -11.3%
COc1ccccc1CNC(=O)Cn1c(=O)ccc2cc(S(=O)(=O)N3CCCC3)ccc21	inactive: 1.65%
CCOc1ccc(N(CC)S(=O)(=O)N2CCCC(C(=O)NCCc3ccccc3OC)C2)cc1 (stereo not drawn)	inactive: -28%
CC1CCCCN1C(=O)CSc1nnc(-c2ccccc2Cl)o1 (stereo not drawn)	inactive: -1.28%
O=C(Nc1ccc(C(=O)N2CCN(c3ccc(Cl)cc3)CC2)cc1)c1nsc2ccccc12	inactive: -34.2%
O=c1c(-c2ccc(O)cc2)coc2cc(O)ccc12	inactive: -4.83%
COc1ccc(Br)cc1CNC(=O)C1COc2ccccc2C1 (stereo not drawn)	inactive: -19.7%
Cc1ccc2oc(-c3cc(NC(=O)c4cccs4)cc(C)c3O)nc2c1	inactive: -2.8%
COc1ccc(C(=O)N2c3ccc(C)cc3C(C)(c3ccccc3)CC2(C)C)cc1 (stereo not drawn)	inactive: -59.2%
CCc1ccc(CNC(=O)c2c(C)oc3ncn(CC(C)C)c(=O)c23)cc1	inactive: -18.5%
COc1cc(Cl)c(C)cc1NC(=O)Cn1ncc2c3ccccc3n(Cc3ccccc3)c2c1=O	inactive: -8.63%
O=C(NCCCc1nc2ccccc2n1Cc1ccc(Cl)cc1Cl)c1ccco1	active: 96.8%
CN(C/C=C/c1ccccc1)Cc1cccc2ccccc12	active: 117%

SMILES	activation
CCN(CC)CCCNC(=O)CN1N=C(c2ccc(OC)cc2)CCC1=O	inactive: -4.3%
COc1ccc(CNC(=O)CCCn2c(=O)c3cccn3c3cccnc32)cc1	inactive: -18.5%
CC(C)c1ccc(OCC(O)CN2CCN(c3ccc(F)cc3)CC2)cc1 (stereo not drawn)	inactive: -8.02%
COc1ccccc1CN1CCC(CNC(=O)c2cnn(-c3ccc(Cl)cc3)c2C2CCN(C(=O)OC(C)(C)C)CC2)CC1	inactive: -21.7%
CCc1ccc(S(=O)(=O)c2c(C(=O)c3ccccc3)cnc3ccc(CC)cc23)cc1	inactive: -26.7%
O=S(=O)(c1cccc(F)c1)N1CCC(Oc2ccc(-n3cnnn3)cc2)CC1	inactive: 2.5%
CCOCCCNC(=O)c1c(NC(=O)Cc2coc3ccc(C)cc23)sc2c1CCC2	inactive: -9.87%
Cc1ccccc1NC(=O)c1ccc(Cl)c(S(=O)(=O)N2CCCCCC2)c1	inactive: -1.43%
CCCCNS(=O)(=O)c1ccc2nc(-c3cccnc3)cc(C(=O)NCCOC)c2c1	inactive: -9.15%
COc1ccc(NC(=O)CSc2nccn2Cc2ccco2)c(OC)c1	inactive: -8.3%
COc1ccc(OC)c(NC(=O)Cc2c(C(=O)O)n(C)c3ccc(C)cc23)c1	inactive: -0.474%
O=C1c2[nH]nc(-c3ccccc3O)c2C(c2ccc(F)cc2)N1CCO (stereo not drawn)	inactive: -8.72%
COc1ccc(-c2nc(SCC(=O)N3CCCCC3C)n[nH]2)cc1 (stereo not drawn)	inactive: -6.79%
CCOC(=O)c1cc(-c2ccc(OC)cc2)n(CCC(=O)Nc2nc3ccc(OCC)cc3s2)c1C	inactive: -33.9%
COC(=O)c1cnn(-c2ccc(C(=O)Nc3cc(OC)c(OC)c(OC)c3)cc2)c1N	inactive: 34.5%
CCOC(=O)c1c(C)sc(-c2c(-c3ccc(OC)c(F)c3)[nH]c3[nH]c(=O)[nH]c(=O)c23)c1O	inactive: -19.4%
CC1=C(C(=O)Nc2ccc(Cl)cc2)C(c2ccc(C(F)(F)F)cc2)n2nnnc2N1 (stereo not drawn)	active: 65%
CCc1ccccc1NC(=O)CSc1ncc(S(=O)(=O)c2ccc(C(C)C)cc2)c(N)n1	inactive: -32%
Cc1ccc(CN(Cc2ccco2)C(=O)c2ccc(Cl)cc2)o1	inactive: -17.7%
CCc1ccc(-n2c(=O)c3c(C)c(C(=O)N(C)C)sc3n(Cc3ccccc3C#N)c2=O)cc1	inactive: 0.29%
CCc1cccc(C)c1Nc1c(-c2cccc(O)c2)nc2nc(C)cc(C)n12	inactive: -25.5%
COCCCNC(=O)c1ccc(Cn2c(SCc3cccc(C)c3)nc3cccnc32)cc1	inactive: -18.5%
Cc1ccc(C)c(N2CCN(C(=O)c3cc(S(=O)(=O)N4CCCCCC4)cn3C)CC2)c1	inactive: -14.2%
Cc1ccc(S(=O)(=O)NCC2CCC(C(=O)NCCc3ccc(Cl)cc3)CC2)cc1 (stereo not drawn)	inactive: -4.92%
CCN(CC)S(=O)(=O)c1ccc2oc(C(=O)NCc3ccccc3OC)c(C)c2c1	inactive: -23.4%
CCOc1ccc(N(CC)S(=O)(=O)N2CCCC(C(=O)NCCc3ccc(OC)cc3)C2)cc1 (stereo not drawn)	inactive: 9.97%
